Laboratory results published in the antibiotic and cytotoxicity screens of Wong et al. (2023).
Some of the results follow.

Experiments:
HSkMC = human skeletal muscle cells; assay: cytotoxicity call (relative viability < 0.9); settings: 10 µM
HepG2 = assay: cytotoxicity call (relative viability < 0.9); settings: 10 µM
S. aureus RN4220 = assay: growth inhibition call (relative growth <= 0.2); settings: 50 µM

Compound	cytotoxicity call (HSkMC)	cytotoxicity call (HepG2)	growth inhibition call (S. aureus RN4220)
C[C@@H]1CN([C@H](C)CO)C(=O)c2cccc(NC(=O)c3ccc(-c4nccs4)cc3)c2O[C@H]1CN(C)Cc1ccc(C(F)(F)F)cc1	active	inactive	inactive
COc1ccccc1-c1cccc(-c2nc(C(=O)NCc3ccncc3)cc3c2[C@@H](CCO)N([S@](=O)C(C)(C)C)C3)c1	inactive	inactive	inactive
COC(=O)[C@H]1c2cc3c(c(O)c2[C@@H](O[C@@H]2O[C@H](C)[C@H](OC)[C@](C)(OC)[C@@H]2OC)C[C@@]1(C)O)C(=O)c1c(O)cc2c(c1C3=O)O[C@H]1O[C@@]2(C)[C@@H](O)[C@H](N(C)C)[C@@H]1O	inactive	active	active
OC[C@H]1NC[C@H](O)[C@@H](O)[C@@H]1O	inactive	inactive	inactive
COC(CN(C)C(=O)c1cn(C)c2ccc(S(=O)(=O)N3CCOCC3)cc2c1=O)OC	inactive	inactive	inactive
COc1cccc(NC(=O)N[C@@H]2C=C[C@H](CC(=O)N3CCOCC3)O[C@H]2CO)c1	inactive	inactive	inactive
C[C@]1(C(=O)NCC(F)(F)F)c2ccccc2C(=O)N(Cc2cc(C(F)(F)F)cc(C(F)(F)F)c2)[C@H]1c1ccc(CO)cc1	inactive	inactive	inactive
Cc1ccc(S(=O)(=O)N(C)C[C@H]2Oc3ccc(NS(=O)(=O)c4cccs4)cc3C(=O)N([C@@H](C)CO)C[C@H]2C)cc1	inactive	inactive	inactive
O=C(C[C@H]1C[C@H]2c3cc(NS(=O)(=O)c4ccc(F)cc4)ccc3O[C@H]2[C@H](CO)O1)NCc1ccccn1	inactive	inactive	inactive
